Data reported in PubChem BioAssay AID488969 (Vanderbilt High Throughput Screening Facility, 2010).
Over roughly 110,000 compounds, “z-score” has its median near -0.1; the highest 2% begin near 2. This is one part of the list.

target: Metabotropic glutamate receptor 8 (Rattus norvegicus) (UniProt P70579); assay: mGluR8 Gi/Go-coupled signaling modulation – cell-based, rat, thallium flux, HTS, primary screen (AID 488969); conditions: HEK293 rat mGluR8, GIRK (G protein-gated inwardly rectifying potassium channel) thallium flux, FluoZin2; at 10 µM; stronger effect = higher value; submaximal glutamate (EC20) added with thallium
UniProt P70579, sequence (P70579 whole entry, looked up): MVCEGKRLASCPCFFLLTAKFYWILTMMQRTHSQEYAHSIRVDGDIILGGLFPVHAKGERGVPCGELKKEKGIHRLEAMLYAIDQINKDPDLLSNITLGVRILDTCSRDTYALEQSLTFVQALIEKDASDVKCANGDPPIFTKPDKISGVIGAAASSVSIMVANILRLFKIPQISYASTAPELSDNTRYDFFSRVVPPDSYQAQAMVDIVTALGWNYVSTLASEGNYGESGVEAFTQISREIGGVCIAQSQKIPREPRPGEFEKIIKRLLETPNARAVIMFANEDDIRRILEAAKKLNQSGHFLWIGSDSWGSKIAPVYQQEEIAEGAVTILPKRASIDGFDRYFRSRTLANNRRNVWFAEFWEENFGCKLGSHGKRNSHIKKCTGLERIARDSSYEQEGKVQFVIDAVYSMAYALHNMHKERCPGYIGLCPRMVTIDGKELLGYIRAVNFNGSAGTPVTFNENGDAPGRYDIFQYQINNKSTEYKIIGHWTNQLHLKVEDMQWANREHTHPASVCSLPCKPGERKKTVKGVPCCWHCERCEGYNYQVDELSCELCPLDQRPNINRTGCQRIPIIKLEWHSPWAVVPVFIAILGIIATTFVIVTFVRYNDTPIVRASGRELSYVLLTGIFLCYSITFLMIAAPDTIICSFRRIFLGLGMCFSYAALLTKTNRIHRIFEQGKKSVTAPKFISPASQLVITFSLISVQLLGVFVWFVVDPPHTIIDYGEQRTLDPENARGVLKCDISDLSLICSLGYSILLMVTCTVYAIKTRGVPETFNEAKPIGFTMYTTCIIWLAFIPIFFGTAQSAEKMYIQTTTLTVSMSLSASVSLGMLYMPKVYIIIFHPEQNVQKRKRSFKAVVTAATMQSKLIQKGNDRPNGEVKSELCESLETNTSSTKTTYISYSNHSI

Question: For COc1ccc(C(=O)COC(=O)C2CCN(S(=O)(=O)c3cccc4cccnc34)CC2)cc1, which z-score is on record?
Answer: The z-score was -0.246.

Question: How did the z-score turn out when Cc1csc(SCCn2c(N3CCOCC3)nc3c2c(=O)[nH]c(=O)n3C)n1 was run?
Answer: Its z-score is -0.532.

Question: With O=C(Cn1nc(-c2ccc(Cl)cc2)ccc1=O)NCCN1CCOCC1 as the compound, how does the z-score read?
Answer: Its z-score is -0.317.

Question: Cc1ccc(-n2c(=O)c3sccc3n(CC(=O)NCc3ccco3)c2=O)cc1 was tested. Which z-score did it give?
Answer: Its z-score is -1.34.

Question: How did the z-score turn out when CCn1c(C(=O)N2CCC(C(=O)N3CCN(c4ccccn4)CC3)CC2)cc2sccc21 was run?
Answer: The z-score was 0.181.

Question: How did the z-score turn out when CS(=O)(=O)N(CCc1ccccc1)CC(=O)N1CCN(Cc2ccc3c(c2)OCO3)CC1 was run?
Answer: The z-score was -0.238.

Question: For Cc1ccc(N2C(=O)CC(Sc3nc(-c4ccccc4)c4cc(Cl)ccc4n3)C2=O)c(C)c1 (centres undefined), which z-score is on record?
Answer: The z-score was -0.386.

Question: With O=C(O)Cc1ccc(NC(=O)C2CC=CCC2C(=O)O)cc1 (centres undefined) as the compound, how does the z-score read?
Answer: Its z-score is -0.373.

Question: CN1CCN(C(=O)NC2CCCCC2)CC1 was tested. Which z-score did it give?
Answer: Its z-score is -0.173.

Question: COCCNC(=O)C(c1ccc(C)o1)N(Cc1ccc(F)cc1)C(=O)Cn1nnc2ccccc21 (centres undefined) was tested. Which z-score did it give?
Answer: Its z-score is 1.39.

Question: Which z-score does the source give for CC1(C)CC(=O)C(C(=S)Nc2ccccc2)=C(NCCN2CCOCC2)C1 here?
Answer: Its z-score is -0.0406.

Question: Which z-score does the source give for COc1ccc(C2C(C#N)=C(C)NC3=C2C(=O)c2ccccc23)cc1 (centres undefined) here?
Answer: The z-score was -0.286.

Question: For COc1c2ccoc2nc2c(OC)c(OCC(O)C(C)(C)O)ccc12 (centres undefined), which z-score is on record?
Answer: The z-score was -0.185.

Question: With N#C/C(=C(/O)CN1CCOCC1)c1nc2ccccc2s1 as the compound, how does the z-score read?
Answer: Its z-score is 0.136.

Question: Cc1ccc2c(c1)-c1cc(C)nn1C(c1ccc3c(c1)OCO3)N2 (centres undefined) was tested. Which z-score did it give?
Answer: Its z-score is -0.166.

Question: Which z-score does the source give for O=C(Nc1cc(=O)[nH]c2ncnn12)c1ccccc1Cl here?
Answer: The z-score was -0.632.

Question: With CC1=CC(=NOC(=O)c2cccc([N+](=O)[O-])c2)C=C(C)C1=O as the compound, how does the z-score read?
Answer: Its z-score is 0.0996.

Question: Which z-score does the source give for Cc1ccc(C(=O)NC(=S)Nc2cccc(NC(=O)c3ccccc3Cl)c2)cc1[N+](=O)[O-] here?
Answer: The z-score was 0.277.

Question: Which z-score does the source give for CC1(C)CC(=O)C2=C(C1)N(c1ccc(F)cc1)C(=O)CC2c1ccccc1 (centres undefined) here?
Answer: The z-score was -0.242.

Question: For COc1ccc(C(=O)NC(=S)NCc2ccco2)cc1OC, which z-score is on record?
Answer: Its z-score is 0.277.

Question: How did the z-score turn out when CN1/C(=C\C(=O)c2cccnc2Cl)C(C)(C)c2ccccc21 was run?
Answer: Its z-score is -0.384.

Question: CCOC(=O)c1ccc(NC(=O)CN2CCc3ccccc3C2)cc1 was tested. Which z-score did it give?
Answer: The z-score was -0.455.

Question: How did the z-score turn out when CCCc1cc(C(=O)NCc2ccco2)no1 was run?
Answer: The z-score was -0.204.

Question: For CC1=C(CC(=O)c2ccccc2)C(=O)c2ccccc2C1=O, which z-score is on record?
Answer: Its z-score is -0.213.

Question: COc1ccc(-c2noc(CCC(=O)Nc3cc(OC)ccc3OC)n2)cc1 was tested. Which z-score did it give?
Answer: Its z-score is 0.948.

Question: Cn1cnnc1SC1c2cccc3cccc(c23)C1NS(=O)(=O)c1ccc(Cl)cc1 (centres undefined) was tested. Which z-score did it give?
Answer: Its z-score is 0.152.

Question: O=C(NNC1=NCCC1)c1cccc(S(=O)(=O)N2CCCCC2)c1 was tested. Which z-score did it give?
Answer: The z-score was 0.0465.

Question: How did the z-score turn out when Cc1cc(-c2ccc(N3CCOCC3)cc2)nc2ccccc12 was run?
Answer: The z-score was -0.464.

Question: O=C(Nc1nn(Cc2ccccc2F)cc1Br)c1cccs1 was tested. Which z-score did it give?
Answer: The z-score was -0.929.
